Several values for one entry are separate records, joined by “and”; a condition that tells them apart may be missing. Identical values can stand only once. Out of some 340,000 compounds screened, about 6,900 (2%) were called active. No stated cut-off is given here; in the data, active means inhibition above about 30%; inactive means below that, where a call was filed. This is a selection; strong and weak results do not stand in their true shares. The source gives no active or inactive call for entries shown without one.
molecular target: D(2) dopamine receptor (Homo sapiens) (UniProt P14416); assay: HTS Assay for Allosteric Antagonists of the Human D2 Dopamine Receptor: Primary Screen for Antagonists; details: HEK293 TREx D2 cells, calcium flux, dopamine EC80; at 10 µM; stronger effect = higher value; further: 0% is about no effect
Summary of the method: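 In this primary screen, negative modulation is detected by tracking calcium flux after an EC80 dopamine challenge in inducible HEK293 T-REx D2 cells preexposed to test compound for 180 s.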

Chain of UniProt P14416 (P14416 whole entry, looked up): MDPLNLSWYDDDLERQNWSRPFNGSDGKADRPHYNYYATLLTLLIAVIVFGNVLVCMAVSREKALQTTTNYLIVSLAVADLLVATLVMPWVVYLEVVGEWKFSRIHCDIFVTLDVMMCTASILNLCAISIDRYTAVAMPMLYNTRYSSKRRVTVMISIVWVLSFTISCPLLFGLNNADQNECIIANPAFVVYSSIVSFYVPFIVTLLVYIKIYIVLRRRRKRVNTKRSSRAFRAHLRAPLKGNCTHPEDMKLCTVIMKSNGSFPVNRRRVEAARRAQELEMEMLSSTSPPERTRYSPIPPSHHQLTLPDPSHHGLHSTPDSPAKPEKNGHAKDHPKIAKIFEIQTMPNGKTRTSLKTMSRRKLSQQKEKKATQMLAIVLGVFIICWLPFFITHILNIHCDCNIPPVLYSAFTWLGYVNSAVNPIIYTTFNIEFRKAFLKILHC

Row | SMILES | inhibition
1 | CCC(=O)N1CCc2cc(CNS(=O)(=O)c3ccc(Cl)s3)ccc21 | -6.46%
2 | Cc1cc(Nc2cccc(F)c2)n2nc(-c3ccco3)nc2n1 | -21.4%
3 | CCc1cccc(CC)c1NC(=O)Cc1csc(C)n1 | -2.29%
4 | CSc1ccc(C2c3c(oc4ccc(F)cc4c3=O)C(=O)N2c2ccc(C)cn2)cc1 (configuration not stated) | 8.24%
5 | Cc1ccc2nc(Nc3ccc(Br)cc3)nc(-c3ccccc3)c2c1 | 2.63%
6 | COc1ccc(OC)c(NC(=O)c2ccc(-c3nc(COc4ccccc4)c(C)o3)cc2)c1 | -1.11%
7 | Cc1cccc(N(C)C(=O)C2CCN(S(=O)(=O)c3cccc4nonc34)CC2)c1 | -2.45%
8 | Cc1c(NC(=O)c2cc3ccccc3o2)cccc1-c1nc2ccccc2o1 | -0.16%
9 | CCCCc1nn2c(=O)cc(COC(=O)CNC(=O)c3ccccc3C)nc2s1 | 6.98%
10 | CCOc1ccc2oc(=O)cc(CN3CCN(C(=O)c4ccc(Cl)cc4)CC3)c2c1 | 14.6%
11 | Cc1ccc(C(C)C)c(OCCSc2nc(-c3cccs3)nc3cc(=O)[nH]n23)c1 | 9.23%
12 | COc1ccc(OC)c(NC(=O)Cn2cc(C(=O)c3cccs3)c3ccccc32)c1 | 19.4%
13 | COc1ccc(/C=C/C(=O)Nc2ccc(Cl)c(Cl)c2)cc1OC | -5.37%
14 | O=C(Cn1c(=O)oc2cc(S(=O)(=O)NCc3ccccc3)ccc21)NCc1ccc(F)cc1 | 4.38%
15 | CCOc1ccc(NC(=O)c2cc(CN3CCCC3)on2)cc1 | 13.2%
16 | O=C(Cn1nc(C(F)(F)F)c2c1CCCC2)Nc1ccc(F)c(Cl)c1 | 4.5%
17 | COc1ccc(-c2ccc(=O)n(CC(=O)Nc3ccc(N(C)C)cc3)n2)cc1 | 3.22%
18 | CC(=O)Nc1ccc(NC(=O)Nc2sc3nc4n(c(=O)c3c2C)CCC(C)CC4)cc1 (configuration not stated) | -13.5%
19 | Cc1c(C(=O)NCc2ccc(F)cc2)sc2nc3n(c(=O)c12)CCC3 | 15.7%
20 | COC(=O)COc1ccc(Oc2nc(NC(C)(C)C)nc(N3CCOCC3)n2)nn1 | 8.23%
21 | CCOc1ccccc1CNC(=O)Cn1nc(C)c2nn(-c3ccc(Cl)cc3)c(C)c2c1=O | -6.52%
22 | COc1ccc(N2CCN(S(=O)(=O)c3c(C)nc4sc(C)cn4c3=O)CC2)cc1 | 0.347%
23 | Cc1cccc(OCC(=O)NCc2ccc3c(c2)CCN3C(=O)c2ccccc2)c1 | 16.2%
24 | COc1ccc(Cc2nc3c4cnn(-c5ccccc5Br)c4ncn3n2)cc1 | 17%
25 | CC1=C(c2ccc(C)c(C)c2)S(=O)(=O)N(Cc2ccc(C(=O)NCc3ccc(C)cc3)cc2)C1=O | -0.54%

Row | SMILES | inhibition
26 | O=C(Nc1nnc(S(=O)(=O)N2CCCC2)s1)c1ccccc1Cl | -6.19% and active: 34.9%
27 | CCn1ccc2cc(S(=O)(=O)N3CCC(C(=O)NCc4ccc(OC(C)C)cc4)CC3)ccc21 | 21.9%
28 | O=C(Nc1cccc(Cl)c1)NC1CC2CCC(C1)N2Cc1ccco1 (configuration not stated) | active: 64.3%
29 | Cc1ccccc1NC(=O)c1ccccc1NC(=O)c1ccccc1F | 7.18%
30 | COc1ccc(-c2nc3ccc(C(=O)NCc4ccccc4)cc3nc2-c2ccc(OC)cc2)cc1 | 6%
31 | Cc1ccccc1NC(=S)NC1CC2CCC(C1)N2Cc1ccco1 (configuration not stated) | active: 39.1%
32 | CCCSc1nnc2c(n1)OC(CC)N(C(C)=O)c1ccccc1-2 (configuration not stated) | -0.568%
33 | Cc1ccc(C)c(NC(=O)CCN2CCN(c3ccccc3F)CC2)c1 | active: 66.9%
34 | O=C(CN1C(=O)COc2ccc(S(=O)(=O)N3CCCCC3)cc21)NCCc1ccc(Cl)cc1 | -1.99%
35 | COc1ccc(CCNC(=O)CSc2nc3ccccc3nc2Cc2ccc(C)cc2)cc1OC | -12.2%
36 | COc1ccc([N+](=O)[O-])cc1NC(=O)C(C)OC(=O)Cn1[nH]c(=O)c2ccccc2c1=O (configuration not stated) | active: 35.8%
37 | COc1ccccc1CNC(=O)c1nn(-c2ccc(C)cc2)c(=O)c2c1c1ccccc1n2C | -7.05%
38 | Cc1cccc(CSc2ncc(Cl)c(C(=O)Nc3sc4c(c3C#N)CCCC4)n2)c1 | -18.6%
39 | COc1ccccc1NC(=O)CSc1oc(-c2cccs2)nc1S(=O)(=O)c1ccc(C)cc1 | 9.33%
40 | CCN(CC)c1nc2c(S(=O)(=O)c3ccc(C)cc3)nnn2c2ccsc12 | 19.4%
41 | O=C(NCc1ccccc1)c1cccc(NC(=O)N2CCSc3ncccc32)c1 | -12.9%
42 | Cc1ccc2[nH]c(=O)c3cc(C(=O)N4CCN(c5ccccc5F)CC4)sc3c2c1 | 2.64%
43 | CCC(C)NC(=O)c1sc2nc(C)c(C(=O)Nc3ccc(C)cc3C)c(-c3ccc(Br)cc3)c2c1N (configuration not stated) | 20.6%
44 | COc1cc(C2NC(=O)N(C)C3=C2C(=O)N(c2ccccc2)C3)ccc1O (configuration not stated) | 7.88%
45 | O=C(CSc1nc(-c2ccccc2)cc(=O)[nH]1)Nc1ccccc1F | 4.29%
46 | OCC1(CCc2ccccc2)CCN(Cc2ccc3nsnc3c2)CC1 | active: 36.1%
47 | CC1=C(C(=O)Nc2ccc(C)c(C)c2)C2(CCCCCC2)OC1=O | 12.2%
48 | Cc1cccn2c3c(c(=O)nc12)C(c1ccc(F)cc1)CC(=O)N3 (configuration not stated) | 2.66%
49 | CCCN(C(=O)c1c(C)oc2ncnc(N3CCOCC3)c12)c1ccc(Cl)c(Cl)c1 | 5.22%
50 | O=S(=O)(NCC(c1ccco1)N1CCN(c2ccccc2)CC1)c1ccccc1 (configuration not stated) | 19.6%

Row | SMILES | inhibition
51 | CCOc1ccc(Cn2nnc(C(=O)Nc3ccc(Cl)cc3)c2N)cc1 | -10.2%
52 | COc1ccccc1CNC(=O)C1CCN(C(=O)c2sccc2-n2cccc2)CC1 | -10.6%
53 | CN(C1CCCCC1)S(=O)(=O)c1ccc2c(c1)c(=O)c(C(=O)NCc1ccc(F)cc1)cn2C | -6.55%
54 | COc1ccccc1CNC(=O)c1cc2c(-c3ccc(Cl)cc3)nn(C)c2s1 | -7.04%
55 | CCn1ccc2c(OCC(=O)Nc3ccc(C(C)=O)cc3)cccc2c1=O | -28.2%
56 | CCSc1oc(-c2cccs2)nc1S(=O)(=O)c1ccc(Br)cc1 | -0.745%
57 | NC(=O)CSc1nc2c(oc3ccccc32)c(=O)n1Cc1ccccc1 | 11.4%
58 | CCc1nnc(NC(=O)c2nc(SC)ncc2Cl)s1 | 14.7%
59 | Cc1ccccc1C(=O)Nc1c(C(=O)Nc2cccc(F)c2)oc2ccccc12 | -0.833%
60 | O=C(NCc1ccc2c(c1)OCO2)c1ccc2c(c1)N(Cc1ccccc1F)C(=O)c1ccccc1S2=O (configuration not stated) | 7.78%
61 | CCOC(=O)c1c(-c2ccccc2)oc2ccc(N(C(C)=O)S(=O)(=O)c3ccccc3)cc12 | 2.62%
62 | COc1cccc(-n2c(SCC(=O)NCc3ccco3)nnc2-c2c[nH]c3ccccc23)c1 | active: 48.4%
63 | CCc1ccccc1NC(=O)CSc1nnc(-c2ccccc2)c(-c2ccccc2)n1 | -8.24%
64 | O=C(CN(c1ccc(Cl)c(C(F)(F)F)c1)S(=O)(=O)c1ccccc1)Nc1cccnc1 | -3.81%
65 | O=C(NCCCN1CCCCC1)c1ccc(CS(=O)c2ccc(F)cc2)o1 (configuration not stated) | active: 31.8%
66 | CCC1Oc2nc(SC)nnc2-c2ccccc2N1C(=O)c1ccccc1 (configuration not stated) | active: 34%
67 | COc1cc(OC)cc(-c2cc3nc(C)c(CCC(=O)Nc4ccccc4OC)c(C)n3n2)c1 | 1.21%
68 | Cc1cc(=O)n(CC(=O)NC(C)c2ccccc2)c2c1c(C)nn2-c1cccc(F)c1 (configuration not stated) | -3.17%
69 | CC(NC(=O)c1ccco1)c1nc(-c2ccccc2)no1 (configuration not stated) | -8.38%
70 | CCN1C(=O)c2ccccc2S(=O)(=O)c2ccc(C(=O)NCc3ccc(OC)cc3)cc21 | -28.2%
71 | O=C(CN1CCc2ccccc2C1)Nc1ccccc1F | active: 64.5%
72 | CCN(CC)CCNC(=O)c1cn(CC)c2ccc(S(=O)(=O)N(C)C3CCCCC3)cc2c1=O | -16.9%
73 | Cn1c(C(=O)N2CCC(C(=O)NCCc3ccccc3)CC2)cc2sccc21 | 2.81%
74 | CCC(C(=O)NC1CCCCC1)n1c(SCc2cccc(C)c2)nc2ccncc21 (configuration not stated) | -8.92%
75 | CN1CCC(N(C)C(=O)COc2ccccc2Cl)CC1 | active: 31.1%

Row | SMILES | inhibition
76 | COCc1c(Br)c(C)nc2sc3c(=O)n(-c4cccc(Br)c4)nnc3c12 | 6.35%
77 | N#Cc1ccccc1CSc1nnc2ccc3ccccc3n12 | -21.4%
78 | Cc1coc2cc3oc(=O)c(CCC(=O)NCc4ccccc4Cl)c(C)c3cc12 | 12.7%
79 | CCCN1CCN(CCCNC(=O)C(CC)n2nc(C)n3c(cc4occc43)c2=O)CC1 (configuration not stated) | -12.1%
80 | COc1cccc(NC(=O)c2cc3c(-c4ccc(Cl)cc4)nn(C)c3s2)c1 | -4.12%
81 | O=C(NCC(c1cccnc1)N1CCN(Cc2ccccc2)CC1)C(=O)Nc1cccc(Cl)c1 (configuration not stated) | -2.11%
82 | O=C(O)c1cccc(-n2cnc3cccnc32)c1 | -0.475%
83 | COC(=O)c1cc(NC(=O)c2sc3ccccc3c2Cl)cc(C(=O)OC)c1 | -1.3%
84 | Cc1cccc(N2CCN(c3ncnc4c3nc3n4CCCCC3)CC2C)c1 (configuration not stated) | 9.24%
85 | CCOc1ccc(-c2nc(CSCC(=O)NCc3ccc(C)cc3)c(C)o2)cc1 | 18.5%
86 | COC(=O)c1cc2occc2n1CC(=O)Nc1ccc(C)cc1Cl | -0.852%
87 | COc1ccc(-c2nn(-c3ccc(C)cc3)c3c2cnc2ccc(C)cc23)cc1OC | 14.2%
88 | COC(=O)c1c(C)oc2ccc(N(C(=O)c3ccncc3)S(=O)(=O)c3cc(C)ccc3C)cc12 | 14.2%
89 | Cc1ccc(C(=O)Nc2ccccc2)cc1S(=O)(=O)Nc1ccccc1 | 1.46%
90 | N#Cc1c(F)cccc1N1CCN(Cc2ccc3c(c2)OCO3)CC1 | active: 85.4%
91 | Cc1ccc(-n2ncc3c(N4CCC(Cc5ccccc5)CC4)ncnc32)cc1C | 18.5%
92 | Cc1ccc(OC(=O)CSc2nnc(-c3ccc4c(c3)OCO4)o2)cc1 | -5.07%
93 | COc1ccc(-n2c(Cc3cc(=O)[nH]c(=O)[nH]3)nnc2SCC(=O)Nc2cc(C(F)(F)F)ccc2Cl)cc1 | active: 40.8%
94 | COc1ccc(N2CCN(C(=O)C3CCN(S(=O)(=O)c4cn(C)cn4)CC3)CC2)cc1 | 15.1%
95 | Cc1cccc(NC(=O)CCNS(=O)(=O)c2ccc3c(c2)CCN3C(=O)C2CC2)c1 | 8.86%
96 | Cc1ccc(NC(=O)Cn2cc(C(=O)C3CCCCC3)c3ccccc32)cc1 | -13.1%
97 | CCOc1ccc(-c2cc(CCCC(=O)NCCc3cc(OC)c(OC)c(OC)c3)no2)cc1 | 1.02%

Reference: PubChem BioAssay AID485344 (National Center for Advancing Translational Sciences (NCATS), 2010)
